57 compounds from PMC4336329 (PLoS ONE, 2015) can be followed below.

The whole screen tested about 310,000 compounds, of which about 2,200 (0.71%) showed an effect of 50% or more. The effect is printed as a negative number. This is one part of the list.

Chain of human ether-à-go-go-related gene (hERG) potassium channel (Q12809 whole entry, looked up): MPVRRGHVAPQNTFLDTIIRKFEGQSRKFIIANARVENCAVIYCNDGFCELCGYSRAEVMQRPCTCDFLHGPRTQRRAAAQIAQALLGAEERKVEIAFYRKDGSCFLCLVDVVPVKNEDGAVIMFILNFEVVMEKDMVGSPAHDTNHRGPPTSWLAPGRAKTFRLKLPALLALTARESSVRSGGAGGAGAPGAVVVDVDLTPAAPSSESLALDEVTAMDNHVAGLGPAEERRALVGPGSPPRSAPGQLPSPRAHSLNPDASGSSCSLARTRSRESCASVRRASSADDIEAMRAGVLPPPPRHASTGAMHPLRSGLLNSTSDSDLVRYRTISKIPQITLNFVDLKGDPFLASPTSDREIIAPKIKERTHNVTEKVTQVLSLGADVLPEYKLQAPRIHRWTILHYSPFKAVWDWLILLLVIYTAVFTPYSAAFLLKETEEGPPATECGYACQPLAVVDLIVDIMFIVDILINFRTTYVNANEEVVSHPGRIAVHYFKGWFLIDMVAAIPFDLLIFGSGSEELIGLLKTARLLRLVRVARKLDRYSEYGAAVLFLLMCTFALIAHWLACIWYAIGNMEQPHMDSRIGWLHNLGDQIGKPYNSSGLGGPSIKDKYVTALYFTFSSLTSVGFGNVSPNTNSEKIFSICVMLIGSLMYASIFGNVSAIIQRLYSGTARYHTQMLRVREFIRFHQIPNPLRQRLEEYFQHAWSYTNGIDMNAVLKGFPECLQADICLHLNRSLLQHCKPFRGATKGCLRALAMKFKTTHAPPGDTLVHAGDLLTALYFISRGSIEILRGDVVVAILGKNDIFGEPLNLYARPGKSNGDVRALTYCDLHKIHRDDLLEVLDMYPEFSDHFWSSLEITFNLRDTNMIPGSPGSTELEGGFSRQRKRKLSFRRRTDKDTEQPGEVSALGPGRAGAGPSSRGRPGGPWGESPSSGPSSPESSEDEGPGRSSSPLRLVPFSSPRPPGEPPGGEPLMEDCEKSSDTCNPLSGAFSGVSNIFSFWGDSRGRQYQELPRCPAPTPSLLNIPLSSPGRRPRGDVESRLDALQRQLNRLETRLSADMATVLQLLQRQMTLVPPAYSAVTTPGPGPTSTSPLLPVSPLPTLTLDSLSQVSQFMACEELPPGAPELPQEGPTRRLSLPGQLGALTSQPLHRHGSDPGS

The test addresses human ether-à-go-go-related gene (hERG) potassium channel (human, UniProt Q12809). As to the kind of experiment: primary screen, population patch clamp on CHO cells stably expressing hERG.
Consider `CCOC(=O)CNC(=O)c1cc(C)oc1C`, for which the “hERG current change (%, negative = inhibition) at 1uM” value was found to be 3.45%.
The result for `COc1ccc(Br)cc1S(=O)(=O)N1CCN=C1c1ccccc1` reads 5.74%.
Take `CCOC(=O)C1CCN(S(=O)(=O)c2ccc(CN3C(=O)c4cccnc4C3=O)cc2)CC1`: the “hERG current change (%, negative = inhibition) at 1uM” value was 11.3%.
With `Cc1cnc(C(=O)OC(C(=O)Nc2cc(C(F)(F)F)ccc2Cl)c2ccccc2)cn1` (stereo not drawn), the “hERG current change (%, negative = inhibition) at 1uM” value is listed as -14.8%.
As for `O=C(Nc1cccc(Cl)c1)c1ccc(F)c(S(=O)(=O)NCc2cccs2)c1`, the “hERG current change (%, negative = inhibition) at 1uM” value turned out to be 4.46%.
As to `CCc1ccc(NC(=O)c2noc3c2CCc2ccccc2-3)cc1`, the “hERG current change (%, negative = inhibition) at 1uM” value is -3.55%.
On to `CCOc1ccccc1NC(=O)NCCC1=CCCCC1`, for which the “hERG current change (%, negative = inhibition) at 1uM” value is on record as -4.85%.
In the case of `NC(=O)c1ccc(NC(=O)C#Cc2ccccc2)cc1`, the “hERG current change (%, negative = inhibition) at 1uM” value was determined as 14.7%.
For the compound `O=C(COc1cccc2cccnc12)N/N=C/c1ccc(O)cc1`, the “hERG current change (%, negative = inhibition) at 1uM” value is 9.1%.
As for `O=C(NCc1cccc(Cl)c1)C1CCC(=O)N(CCN2CCOCC2)C1` (stereo not drawn), the figure is 25.2%; as for `CC(C)=C1C2C=CC1C1C(=O)N(c3ccc4c(c3)OCO4)C(=O)C21` (stereo not drawn), 8.96%; as for `Cc1ccc(OCCN2C(=O)C(=O)c3cccc(C)c32)cc1`, 4.13%.
Consider `O=C(COC(=O)Cc1cccs1)Nc1cccc(S(=O)(=O)N2CCOCC2)c1`, for which the “hERG current change (%, negative = inhibition) at 1uM” value came to 1.95%.
As to `Cc1cccc(CSc2cn(CC(=O)N3CCOCC3)c3ccccc23)c1`, the “hERG current change (%, negative = inhibition) at 1uM” value is reported as 5.07%.
`Cc1nn(CC(=O)N2CC(=O)Nc3ccccc32)c(C)c1[N+](=O)[O-]`: the “hERG current change (%, negative = inhibition) at 1uM” value is on record as 21.8%.
Take `CCN(CCCNC(=O)C1CCC(=O)N1Cc1ccccc1Cl)c1cccc(C)c1` (stereo not drawn): the “hERG current change (%, negative = inhibition) at 1uM” value is given as -9.57%.
As to `CN(c1ccc(OCC(=O)N2CCOCC2)cc1)S(=O)(=O)c1ccc(Cl)cc1`, the “hERG current change (%, negative = inhibition) at 1uM” value is recorded as 7.86%.
`Cc1cc(=O)oc2cc(OCCSc3nnc(-c4ccccc4)o3)ccc12`: the “hERG current change (%, negative = inhibition) at 1uM” value turned out to be 7.17%.
`CCCc1cc(=O)[nH]c(SCC(=O)N(C)CC(=O)Nc2ccc(C)cc2)n1`: the “hERG current change (%, negative = inhibition) at 1uM” value is given as -0.836%.
For `COc1ccc(CCCc2nnc(SCC(=O)Nc3ccc(OC)cc3)o2)cc1`, the “hERG current change (%, negative = inhibition) at 1uM” value was determined as 15.1%.
Consider `O=C(NCCS(=O)(=O)c1ccc(Cl)cc1)c1ccc(F)cc1`, for which the “hERG current change (%, negative = inhibition) at 1uM” value is given as 5.27%.
Regarding `O=C(Nc1c(C(=O)N2CCOCC2)cnn1-c1ccccc1Cl)c1ccco1`, the “hERG current change (%, negative = inhibition) at 1uM” value is given as 4.04%.
In the case of `CN(c1ccccc1)S(=O)(=O)c1ccc(Cl)c(C(=O)Nc2nc3ccccc3[nH]2)c1`, the “hERG current change (%, negative = inhibition) at 1uM” value was 10.8%.
`Cc1ccc(C2NC(=O)c3ccccc3O2)cc1` (stereo not drawn): the “hERG current change (%, negative = inhibition) at 1uM” value is on record as 11.8%.
As for `O=C(C[n+]1ccccc1)c1ccc(NC(=O)c2ccccc2)cc1.[I-]`, the “hERG current change (%, negative = inhibition) at 1uM” value was found to be 7.29%.
As for `CC1(C)CC(=O)C2=C(C1)N(Cc1ccco1)C(=O)C2(NC(=O)C1CCCCC1)C(F)(F)F` (stereo not drawn), the “hERG current change (%, negative = inhibition) at 1uM” value was found to be 5.43%.
Turning to `COc1ccc(OC)c(NC(=O)CSc2nnc(C)n2Cc2ccccc2)c1`, the “hERG current change (%, negative = inhibition) at 1uM” value is reported as -3.69%.
The result for `CCOc1ccc(C(=O)NC(Cc2ccccc2)C(=O)OC)cc1` (stereo not drawn) reads 4.27%; that for `CCCN1CCN(C(=O)c2cc(COc3ccc(F)cc3F)on2)CC1`, 9.53%.
On to `CCCCN(CC)Cc1ccc(CNC(=O)Nc2ccc(Cl)cc2)o1`, for which the “hERG current change (%, negative = inhibition) at 1uM” value is -6.02%.
The result for `c1csc(C(c2nnnn2C2CCCCC2)N2CCCC3(CCCCC3)C2)c1` (stereo not drawn) reads 16.9%.
Take `Cc1cc(C)n2ncnc2n1`: the “hERG current change (%, negative = inhibition) at 1uM” value was found to be 7.65%.
For `Cc1c(CC(=O)O)c(=O)oc2cc3c(cc12)CCC(C)(C)O3`, the “hERG current change (%, negative = inhibition) at 1uM” value stood at 10.4%.
As to `CC(=O)NCCOc1nc(N(C)C)nc(N(C)C)n1`, the “hERG current change (%, negative = inhibition) at 1uM” value is listed as 19.9%.
The result for `CCOC(=O)C(=CNc1ccc(N2CCOCC2)cc1)C(=O)OCC` reads 12.2%; that for `CCOC(=O)C1CN(S(=O)(=O)c2ccc(C)cc2)C1`, 8.49%.
For the compound `Nn1c(CN2CCCCC2)nc2ccccc2c1=O`, the “hERG current change (%, negative = inhibition) at 1uM” value amounted to 2.79%.
As to `COc1ccc2oc(C(=O)OCC(=O)Nc3ccc(N4CCOCC4)cc3)c(C)c2c1`, the “hERG current change (%, negative = inhibition) at 1uM” value came to 15.1%.
Turning to `Cc1ccc2oc(=O)n(CC(=O)N3CCOCC3)c2c1`, the “hERG current change (%, negative = inhibition) at 1uM” value stood at 9.29%.
As for `Cc1ccc(OCC(=O)NCCNC(=O)COc2ccc(C)cc2)cc1`, the figure is 13%; as for `COc1cccc(NC(=O)NNC(=O)COc2ccc3ccccc3c2)c1`, 8.61%.
`COc1ccc(-n2cccc2C=O)cc1OC`: the “hERG current change (%, negative = inhibition) at 1uM” value was 8.13%.
The result for `CCOc1ccc(-c2nnc(-c3ccc(OC)cc3)o2)cc1` reads 3.85%; that for `Cc1nc(N2CCN(C(=O)c3ccc(Cl)cc3)CC2)c(C#N)c2c1COC(C)(C)C2`, -7.98%.
As to `CCc1cc(=O)oc2c3c(cc(OCC(=O)NCCCOC)c12)OC(C)(C)CC3`, the “hERG current change (%, negative = inhibition) at 1uM” value was determined as 9.73%.
In the case of `Cc1ccc(/C=N/N2C(=S)SC(C)(C)C2N(O)C(=O)Nc2ccc([N+](=O)[O-])cc2)cc1` (stereo not drawn), the “hERG current change (%, negative = inhibition) at 1uM” value came out at 11.4%.
`Cc1nnc(SCC(=O)NC(C)(C)C)n1C1CCCCC1`: the “hERG current change (%, negative = inhibition) at 1uM” value is given as 6.2%.
For the compound `CN(Cc1ccccc1)S(=O)(=O)c1ccc(OCC(=O)NCc2ccccn2)cc1`, the “hERG current change (%, negative = inhibition) at 1uM” value is recorded as -1.65%.
Consider `Cc1ccc(C(=O)NCCN(C)C)cc1C`, for which the “hERG current change (%, negative = inhibition) at 1uM” value is given as 14.8%.
As for `O=C(O)COc1ccccc1/C=N/NC(=O)CN1CCN(Cc2ccc(Cl)cc2)CC1`, the “hERG current change (%, negative = inhibition) at 1uM” value stood at 9.59%.
As to `CCOc1ccc(N(C(=O)c2cnccn2)C(C(=O)NC2CCCCC2)c2ccc(O)cc2)cc1` (stereo not drawn), the “hERG current change (%, negative = inhibition) at 1uM” value is on record as 12.4%.
With `Cc1ccc(NC(=O)c2ccc3c(c2)N(CC(=O)NC(C)C)C(=O)C(C)(C)O3)cc1`, the “hERG current change (%, negative = inhibition) at 1uM” value is 15%.
Regarding `COc1ccc(CC(=O)OCc2nnc(-c3ccccc3)o2)cc1`, the “hERG current change (%, negative = inhibition) at 1uM” value was found to be 12.5%.
As for `Cc1ccccc1NP(=O)(Oc1ccccc1F)Oc1ccccc1F`, the “hERG current change (%, negative = inhibition) at 1uM” value turned out to be 13.9%.
As to `CCC(C)(C)C1CCc2[nH]nc(C(=O)NCCCNC(=O)OC(C)(C)C)c2C1` (stereo not drawn), the “hERG current change (%, negative = inhibition) at 1uM” value was determined as 11.6%.
As to `CCCOc1ccc(C(F)(F)F)cc1NC(=O)c1cc(C)on1`, the “hERG current change (%, negative = inhibition) at 1uM” value was determined as 0.427%.
With `CCN1CCN(c2ccc(S(=O)(=O)N3CCCCC3)cc2NC(=O)/C=C/c2ccc(F)cc2)CC1`, the “hERG current change (%, negative = inhibition) at 1uM” value came out at 8.36%.
